# Test results published in paper PMC10991417.
# The chains behind the UniProt entries cited, without tags or fusion partners.
# UniProt A8DY81: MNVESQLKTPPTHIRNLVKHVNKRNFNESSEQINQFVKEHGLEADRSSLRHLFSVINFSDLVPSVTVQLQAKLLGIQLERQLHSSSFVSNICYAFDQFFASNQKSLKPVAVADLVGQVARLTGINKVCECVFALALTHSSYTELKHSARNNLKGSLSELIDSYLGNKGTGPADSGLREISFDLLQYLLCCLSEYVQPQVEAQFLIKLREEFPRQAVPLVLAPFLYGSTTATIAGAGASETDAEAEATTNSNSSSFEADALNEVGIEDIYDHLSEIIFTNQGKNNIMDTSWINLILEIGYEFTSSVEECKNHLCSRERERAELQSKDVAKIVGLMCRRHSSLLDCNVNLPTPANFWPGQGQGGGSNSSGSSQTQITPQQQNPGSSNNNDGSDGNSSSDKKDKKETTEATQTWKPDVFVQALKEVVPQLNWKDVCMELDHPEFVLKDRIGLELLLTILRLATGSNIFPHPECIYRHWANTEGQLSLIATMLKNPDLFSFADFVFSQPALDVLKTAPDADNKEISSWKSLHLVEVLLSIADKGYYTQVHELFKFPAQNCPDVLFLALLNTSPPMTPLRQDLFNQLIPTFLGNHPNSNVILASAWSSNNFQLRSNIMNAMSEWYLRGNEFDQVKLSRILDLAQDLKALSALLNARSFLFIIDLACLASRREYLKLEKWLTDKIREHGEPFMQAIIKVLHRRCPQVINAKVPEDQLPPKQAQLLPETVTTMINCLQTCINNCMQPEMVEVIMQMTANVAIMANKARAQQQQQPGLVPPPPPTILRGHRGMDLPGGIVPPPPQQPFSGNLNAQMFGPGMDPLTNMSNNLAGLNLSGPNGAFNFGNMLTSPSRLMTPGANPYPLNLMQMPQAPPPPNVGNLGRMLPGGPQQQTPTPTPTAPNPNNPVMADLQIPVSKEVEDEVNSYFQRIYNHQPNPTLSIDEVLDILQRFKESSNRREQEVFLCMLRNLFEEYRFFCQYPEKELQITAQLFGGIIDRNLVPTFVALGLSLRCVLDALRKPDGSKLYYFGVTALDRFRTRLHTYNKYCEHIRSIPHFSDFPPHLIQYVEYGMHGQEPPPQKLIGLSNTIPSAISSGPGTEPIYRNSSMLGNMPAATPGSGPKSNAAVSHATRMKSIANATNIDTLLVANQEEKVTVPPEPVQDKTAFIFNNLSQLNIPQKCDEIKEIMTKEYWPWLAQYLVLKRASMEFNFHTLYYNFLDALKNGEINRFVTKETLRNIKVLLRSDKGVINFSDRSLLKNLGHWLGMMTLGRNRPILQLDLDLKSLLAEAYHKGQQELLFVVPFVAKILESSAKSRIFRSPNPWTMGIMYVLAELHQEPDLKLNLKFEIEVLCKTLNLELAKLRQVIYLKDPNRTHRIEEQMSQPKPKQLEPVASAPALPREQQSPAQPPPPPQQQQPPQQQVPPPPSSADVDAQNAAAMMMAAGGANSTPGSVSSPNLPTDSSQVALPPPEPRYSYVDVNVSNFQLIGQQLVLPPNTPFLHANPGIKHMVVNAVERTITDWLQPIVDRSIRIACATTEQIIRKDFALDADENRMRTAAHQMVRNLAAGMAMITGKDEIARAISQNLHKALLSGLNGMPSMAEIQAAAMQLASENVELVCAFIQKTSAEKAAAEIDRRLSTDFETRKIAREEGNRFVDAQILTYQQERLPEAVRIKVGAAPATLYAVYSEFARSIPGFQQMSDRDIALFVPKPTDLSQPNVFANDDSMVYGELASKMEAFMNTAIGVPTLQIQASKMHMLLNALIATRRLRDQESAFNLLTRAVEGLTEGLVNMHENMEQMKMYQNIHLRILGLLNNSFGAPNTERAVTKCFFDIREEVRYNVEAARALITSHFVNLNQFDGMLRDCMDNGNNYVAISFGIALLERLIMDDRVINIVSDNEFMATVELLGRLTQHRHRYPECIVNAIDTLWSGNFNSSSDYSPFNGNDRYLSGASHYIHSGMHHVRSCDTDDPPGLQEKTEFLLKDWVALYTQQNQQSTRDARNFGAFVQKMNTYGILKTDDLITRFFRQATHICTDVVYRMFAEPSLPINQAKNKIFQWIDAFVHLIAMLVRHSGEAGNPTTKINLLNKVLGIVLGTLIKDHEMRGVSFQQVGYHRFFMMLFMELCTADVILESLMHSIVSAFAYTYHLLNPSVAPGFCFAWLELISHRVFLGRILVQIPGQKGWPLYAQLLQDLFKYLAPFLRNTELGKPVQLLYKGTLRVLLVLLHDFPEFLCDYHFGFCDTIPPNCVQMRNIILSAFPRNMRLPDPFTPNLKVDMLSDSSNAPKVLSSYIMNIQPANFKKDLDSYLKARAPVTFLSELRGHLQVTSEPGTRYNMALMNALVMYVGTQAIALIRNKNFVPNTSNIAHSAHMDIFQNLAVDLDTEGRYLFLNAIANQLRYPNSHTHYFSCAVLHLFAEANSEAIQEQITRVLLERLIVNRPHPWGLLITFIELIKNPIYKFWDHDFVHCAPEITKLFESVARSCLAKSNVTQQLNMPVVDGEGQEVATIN
# UniProt Q7JVP2: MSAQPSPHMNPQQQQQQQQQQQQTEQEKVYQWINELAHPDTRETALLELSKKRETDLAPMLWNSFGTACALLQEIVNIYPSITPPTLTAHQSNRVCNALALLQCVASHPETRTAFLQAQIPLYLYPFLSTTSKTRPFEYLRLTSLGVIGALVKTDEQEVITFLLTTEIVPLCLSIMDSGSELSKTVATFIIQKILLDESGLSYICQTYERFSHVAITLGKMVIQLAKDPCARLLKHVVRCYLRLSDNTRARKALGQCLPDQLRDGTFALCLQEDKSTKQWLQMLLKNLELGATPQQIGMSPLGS
# UniProt Q7K126: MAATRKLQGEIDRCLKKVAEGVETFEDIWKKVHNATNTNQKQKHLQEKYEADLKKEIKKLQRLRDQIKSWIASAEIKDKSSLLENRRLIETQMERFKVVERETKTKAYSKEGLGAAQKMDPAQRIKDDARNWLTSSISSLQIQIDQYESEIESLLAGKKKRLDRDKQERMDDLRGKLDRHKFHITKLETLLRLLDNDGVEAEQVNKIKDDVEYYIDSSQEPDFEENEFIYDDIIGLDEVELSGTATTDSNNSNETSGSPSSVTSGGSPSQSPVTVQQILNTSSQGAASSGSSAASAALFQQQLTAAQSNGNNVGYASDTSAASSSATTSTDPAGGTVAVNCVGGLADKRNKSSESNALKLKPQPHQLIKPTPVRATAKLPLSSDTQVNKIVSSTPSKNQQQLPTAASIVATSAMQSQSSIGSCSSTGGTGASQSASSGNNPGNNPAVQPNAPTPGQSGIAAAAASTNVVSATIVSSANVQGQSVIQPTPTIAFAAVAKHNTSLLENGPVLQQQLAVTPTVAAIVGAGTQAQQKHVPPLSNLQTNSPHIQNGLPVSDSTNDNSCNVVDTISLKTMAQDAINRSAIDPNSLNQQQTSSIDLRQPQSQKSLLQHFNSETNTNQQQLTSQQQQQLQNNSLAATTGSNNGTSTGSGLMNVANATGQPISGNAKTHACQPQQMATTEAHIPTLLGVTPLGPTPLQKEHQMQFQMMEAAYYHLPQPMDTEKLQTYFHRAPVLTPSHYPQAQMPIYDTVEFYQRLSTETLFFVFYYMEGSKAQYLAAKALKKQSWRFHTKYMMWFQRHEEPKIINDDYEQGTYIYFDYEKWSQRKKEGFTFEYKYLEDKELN
# UniProt O02374: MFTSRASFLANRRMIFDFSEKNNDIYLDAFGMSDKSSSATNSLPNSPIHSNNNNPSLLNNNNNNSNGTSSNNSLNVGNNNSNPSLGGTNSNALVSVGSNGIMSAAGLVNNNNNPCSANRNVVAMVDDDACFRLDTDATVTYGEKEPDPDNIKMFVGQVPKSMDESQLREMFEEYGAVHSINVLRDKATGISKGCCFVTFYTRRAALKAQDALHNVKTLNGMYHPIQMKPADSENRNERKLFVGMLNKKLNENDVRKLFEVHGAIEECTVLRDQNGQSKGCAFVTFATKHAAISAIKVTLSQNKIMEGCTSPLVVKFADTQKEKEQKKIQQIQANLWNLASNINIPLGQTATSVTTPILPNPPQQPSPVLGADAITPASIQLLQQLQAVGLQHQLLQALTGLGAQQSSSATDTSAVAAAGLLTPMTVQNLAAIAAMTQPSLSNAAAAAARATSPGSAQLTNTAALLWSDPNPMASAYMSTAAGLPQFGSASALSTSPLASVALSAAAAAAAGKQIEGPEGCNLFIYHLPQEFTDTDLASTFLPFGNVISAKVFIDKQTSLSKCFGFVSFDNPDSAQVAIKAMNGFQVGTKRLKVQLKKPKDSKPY
# Where two headings read alike, the source gives them in different places. Results are given in words; binding and its absence hold for the method and conditions named. Some binding calls cover weakened binding; strength is not graded here.
# B1: NOT2 (Drosophila CCR4-NOT complex subunit) (protein, UniProt Q94547 1-585)
# chain: MANLNFQQPPRSIANAALAGRTTGGFGGSSLAGHVTPTSGMFQTDFANSYPGTANYGQAPQQQQQQQQQPQLSPNRNAQLSVGGPAISSGNRNANLFGQRQFVERRAMQGLGSGPMSNMGNFMQTGRGGYGTGGGGGGPLNNFHVFGGGGGSDTSTPALLDPTEFPSLTNARGQNDQTLPQSNPLQPPGSKPYGNFFTSFGMVKQPTSEQSEFTMSNEDFPALPGTQNSDGTTNAVGSVAGTGGSGGASTENHLDGTEKPMNSIVVSGSASGSSGSNVGVVGGNGLGAVGSGIGGLAVGGGGGAGSSGGGGVGGNAASGVVGGSHVGLVGSNSGIGGVNSVPNSNAMMGVGGGLGSGSGSSGSGAGGEHLNDNSSNDKLVKSGVQTSPDGKVTNIPATMVNNQFGMVGLLTFIRAAETDPNLVTLSLGTDLTGLGLNLNSQESLHTTFAGPFVAQPCRAQDVEFNVPPEYLINFAIRDKLTAPVLKKLQEDLLFFLFYTNIGDMMQLMAAAELHSREWRYHVEEKIWITRIPGIDQYEKNGTKERGTFYYFDAQSWKRLSKVFQIDPEKLDKCPNISAFMNGQSV
# B2: Cup (Drosophila) (protein, UniProt Q9VMA3 1-1117)
# chain: MQMAEAEQENGAGALKIATNAGATDRPAHQQLPLPVEDQQDEVLTPAEKGKFEYPPPPPPPTPVQAPLATKATALNASQEHDDDEANSEKWEDPCAPPPPPPLPTSAFLATGLGYLKLPAFKLKDALEKAITKLEANKRTLKASPESSRSIKNKNVVALEMLPRRSNPETIGDGSMLASTSTAVMLQTKKPAVIVEMERRCKIINLLAKQNQILESISGEAIPMHGPSKHLHEDEGLTLQVLSARASTPYTQPSSMLSCTAVSCDLEHDSPRKQVASKEAVPEQQSSQVQQKRPPSTGIHKPGSLRAPKAVRPTTAPVVSSKPVKSYTRSRLMDIRNGMFNALMHRSKESFVMPRIATCDDIELEGRLRRMNIWRTSDGTRFRTRSTTANLNMNNNNNNECMPAFFKNKNKPNLISDESIIQSQPPQPQTEFQDPAIVNQRRIGSGRLNHSKWGYNDEDYHSYHNGKSQHMEEVNSKNSKNMTVLQFFDNGEISSQPQRRPNTPVMGMSINRSENDTLHSNESSEDLSRANENYVKRVMSGFLVVSKPKSRDVEDRHHRRYRNQNEEPEWFSCGPTSRLDTIELCGFDEDEEKMLKEGNKNHGLGETERETSKQKMDHKYKWTHAEPMGRSKYMPKHDTNNNHNVENMNNVMATEHQQQKEEKRPGSGRSFQFDKFNQSQQNYESSSYVNHQQPPQTQPQQMQQQSNTNTNNSKFMSFFANEGNSSSSSLNEFFKQAINQGHGNNPEQPKSLGHIGQMPSVDQLEAKWRRNSLNNVGETANKQTDNFQKLIGSLSSAKPQSQAVGYDAISNFIMQQQQYQQQQQKQHLIIQQQQQHTAFLASLQLKAILGRADTQLLLLRLTKGEISKHGLLVQLANPRLTDMDREAITAVLQFTNTQQQQQQHKQQLDMLSSTVIASQLQNLHNLAIVQQTLAARQQPQHNPQTQAPHQLSQEDLQAHANVIMRNAVMKRKIEEQTSKLINGGAKHQAQQQYLNRGQQRQARPDANSNALLHALISGGGNNHASGYPMNGQPQKHHSNLRFGDNQNFQSFESNQPHFATQYKQQYQQSQQQHPHQQPQQLNSLHQNNAGAVNSFNKAQMQAQSAISMLPNSGDEFH
# What was measured:
# [1] = target: NOT1 (Drosophila CCR4-NOT complex subunit) (Drosophila) (UniProt A8DY81); experiment: ReLo relocalization assay (live-cell confocal fluorescence microscopy); pairwise; membrane anchor (PH or OST4) and which partner was anchored are not given; S2R+ cells cotransfected with two plasmids, imaged after 48 h at 25 °C
# [2] = target: T1, NOT2 (Drosophila CCR4-NOT complex subunit) (Drosophila) (UniProt Q94547); experiment: as above
# T1 sequence: B1 chain
# [3] = target: CAF40 (Drosophila CCR4-NOT complex subunit) (Drosophila) (UniProt Q7JVP2); experiment: as above
# [4] = target: NOT3 (Drosophila CCR4-NOT complex subunit) (Drosophila) (UniProt Q7K126); experiment: as above
# [5] = target: T2, Nanos (Drosophila) (Drosophila) (UniProt P25724); experiment: as above
# T2 sequence: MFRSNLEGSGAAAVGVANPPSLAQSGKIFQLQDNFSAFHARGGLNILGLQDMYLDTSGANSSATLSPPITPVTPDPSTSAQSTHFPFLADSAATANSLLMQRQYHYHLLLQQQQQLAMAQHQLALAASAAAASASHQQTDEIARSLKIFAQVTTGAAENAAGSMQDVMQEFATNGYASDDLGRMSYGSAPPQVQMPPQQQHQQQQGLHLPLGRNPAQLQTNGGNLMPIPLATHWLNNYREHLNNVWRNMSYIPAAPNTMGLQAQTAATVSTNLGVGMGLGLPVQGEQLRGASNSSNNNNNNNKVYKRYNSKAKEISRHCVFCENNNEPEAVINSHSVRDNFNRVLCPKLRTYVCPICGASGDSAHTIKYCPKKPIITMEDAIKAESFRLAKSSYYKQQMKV
# [6] = target: T2, Nanos (Drosophila) (Drosophila); experiment: ReLo relocalization assay (live-cell confocal fluorescence microscopy); two tested proteins with Cup coexpressed as a third protein in S2R+ cells
# [7] = target: NOT1 (Drosophila CCR4-NOT complex subunit) (Drosophila) (UniProt A8DY81); experiment: ReLo relocalization assay (live-cell confocal fluorescence microscopy); pairwise; one partner anchored to the plasma membrane by the PH domain of rat PLCδ1 and fused to mCherry, the other fused to EGFP/mEGFP; S2R+ cells cotransfected with two plasmids, imaged after 48 h at 25 °C
# [8] = target: CAF40 (Drosophila CCR4-NOT complex subunit) (Drosophila) (UniProt Q7JVP2); experiment: as above
# [9] = target: NOT3 (Drosophila CCR4-NOT complex subunit) (Drosophila) (UniProt Q7K126); experiment: as above
# [10] = target: NOT1 (Drosophila CCR4-NOT complex subunit) (Drosophila) (UniProt A8DY81); experiment: ReLo relocalization assay (live-cell confocal fluorescence microscopy); pairwise; membrane anchor (PH or OST4) and which partner was anchored are not given; S2R+ cells cotransfected with two plasmids, imaged after 48 h at 25 °C; remark: listed apart in the source
# [11] = target: T1, NOT2 (Drosophila CCR4-NOT complex subunit) (Drosophila); experiment: as above; remark: listed apart in the source
# [12] = target: CAF40 (Drosophila CCR4-NOT complex subunit) (Drosophila) (UniProt Q7JVP2); experiment: as above; remark: listed apart in the source
# [13] = target: NOT3 (Drosophila CCR4-NOT complex subunit) (Drosophila) (UniProt Q7K126); experiment: as above; remark: listed apart in the source
# [14] = target: T3, eukaryotic translation initiation factor 4E (eIF4E) (Drosophila) (UniProt P48598); experiment: as above
# T3 sequence: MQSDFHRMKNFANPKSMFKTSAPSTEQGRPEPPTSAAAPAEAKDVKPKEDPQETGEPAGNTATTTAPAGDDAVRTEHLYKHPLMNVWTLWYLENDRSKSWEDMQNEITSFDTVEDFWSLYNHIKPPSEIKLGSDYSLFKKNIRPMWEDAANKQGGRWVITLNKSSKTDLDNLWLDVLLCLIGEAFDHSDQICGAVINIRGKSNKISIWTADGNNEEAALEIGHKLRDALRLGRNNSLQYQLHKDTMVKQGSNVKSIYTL
# Bruno = Bruno (UniProt O02374); experiment: as above
# [15] = target: T4, DEAD-box RNA helicase Me31B (UniProt P23128); experiment: as above
# T4 sequence: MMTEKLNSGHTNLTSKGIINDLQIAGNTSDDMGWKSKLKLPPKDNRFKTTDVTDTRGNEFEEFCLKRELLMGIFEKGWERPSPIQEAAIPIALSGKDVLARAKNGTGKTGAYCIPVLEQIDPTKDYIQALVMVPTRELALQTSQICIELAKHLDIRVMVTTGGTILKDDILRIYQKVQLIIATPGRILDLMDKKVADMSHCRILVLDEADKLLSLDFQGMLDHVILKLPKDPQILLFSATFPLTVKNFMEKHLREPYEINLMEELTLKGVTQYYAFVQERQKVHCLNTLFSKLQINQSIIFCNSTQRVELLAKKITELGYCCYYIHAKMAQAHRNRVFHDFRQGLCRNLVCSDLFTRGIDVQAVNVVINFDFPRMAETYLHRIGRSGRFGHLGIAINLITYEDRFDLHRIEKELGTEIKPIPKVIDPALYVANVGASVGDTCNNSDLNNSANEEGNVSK
# [16] = target: T2, Nanos (Drosophila) (Drosophila); experiment: as above; remark: listed apart in the source
molecule,measurement,setting,value
Bruno (from UniProt O02374 1-604),binding,[1],no binding
same,binding,[2],no binding
same,binding,[3],no binding
same,binding,[4],no binding
same,binding,[5],binds
same,binding,[6],no binding (condition: with Cup coexpressed)
B1,binding,[7],binds
same,binding,[8],no binding
same,binding,[9],binds
B2,binding,[10],no binding
same,binding,[11],no binding
same,binding,[12],no binding
same,binding,[13],no binding
same,binding,[14],binds
same,binding,Bruno,binds
same,binding,[15],binds
same,binding,[16],binds
